Values joined by “and” are separate entries in the source; they are usually repeats but may differ in a detail not shown here. Equal values may be shown once. The inconclusive results got no clear call from the source; some entries with a clear call stand among them for comparison. Where the call is inconclusive, the potency comes from a doubtful curve fit. Some structures have more than one record in an assay (separate samples or runs), and their calls can disagree. Active and inactive are the calls of the source. Calls follow the shape of the dose curve; as a rule, active = well fitted cell-killing curve with a large enough effect in the repeat runs; inconclusive = weak or mixed curves; inactive = flat fitted curve, though single readings scatter.
Experiment: qHTS assay for small molecule agonists of the antioxidant response element (ARE) signaling pathway measured by Nrf2-dependant transcriptional activity - cell viability counter screen (AID 720653)
Settings: ARE-bla HepG2 viability, CellTiter-Glo ATP luminescence, 16 h; max response: hits give low values
Description: National Center for Advancing Translational Sciences [NCATS] NIH Chemical Genomics Center [NCGC] U.S. Environmental Protection Agency [EPA] National Institutes of Environmental Health Sciences [NIEHS] National Toxicology Program [NTP] Assay Overview: Oxidative stress has been implicated in the pathogenesis of a variety of diseases ranging from cancer to neurodegeneration. The antioxidant response element (ARE) signaling pathway plays an important role in the amelioration of oxidative stress. The CellSensor ARE-bla HepG2 cell line (Invitrogen) can be used for analyzing the Nrf2/antioxidant response signaling pathway. Nrf2 (NF-E2-related factor 2) and Nrf1 are transcription factors that bind to AREs and activate these genes. The CellSensor ARE-bla HepG2 cell line contains a beta-lactamase reporter gene under control of the Antioxidant Response Element (ARE) stably integrated into HepG2 cells. The activation of the report gene under culture conditions can be detected by fluorescence intensity. The cytotoxicity of the compounds against the ARE-bla HepG2 cell line was quantified by measuring the intracellular ATP content.
Assay Protocol Summary: ARE-bla HepG2 cells were dispensed at 2,000 cells/5 ul/well in 1536-well black wall/clear bottom plates using a Multidrop Combi (ThermoFisher Scientific, Waltham, MA) dispenser. After the assay plates were incubated at 37C/5% CO2 for 5 hrs, 23 nL of compounds dissolved in DMSO, positive controls or DMSO only was transferred to the assay plate by a pintool work station (Kalypsys, San Diego, CA). The plates were incubated at 37C/5% CO2 for 16 hrs. After 1 uL of LiveBLAzer B/G FRET substrate was added using a Flying Reagent Dispenser (FRD) (Aurora Discovery, San Diego, CA), the assay plates were incubated at room temperature for 2 hrs. The fluorescence intensity was measured by an Envision (PerkinElmer, Shelton, CT) plate reader. Cell viability using CellTiter Glo viability assay (Promega, Madison, WI) was also measured by adding 4 ul/well of CellTiter-Glo reagent into the same assay plate using a FRD. After 30 min incubation at room temperature, the luminescence intensity in the plates was measured using a ViewLux (PerkinElmer) plate reader.
% is scaled to controls: 0 for no effect and ±100 for the full control effect; potency is read from the fitted curve at half-maximal effect; tags tell the direction and shape of the fitted curve.

SMILES | Potency | max response
Cc1c2ccccc2c(C)c2c1ccc1ccccc12 | active: 44.7 µM | 
C=CC(=O)OCCOCCOCCOCCOC(=O)C=C | inconclusive: 39.8 µM [cytotoxic, partial curve] | 
O=[N+]([O-])c1cc(N(CCO)CCO)ccc1NCCO | inconclusive: 44.7 µM [cytotoxic, partial curve, poor fit] | inactive: -24.7%
S=C1NC=NC2N=CNC12 (stereo not drawn) | inconclusive: 3.16 µM [cytotoxic, full curve] | 
CCCCCCCC[N+](CCCCCCCC)(CCCCCCCC)CCCCCCCC | active: 28.2 µM | 
CC1=C(/C=C/C(C)=C/C=C/C(C)=C\C=O)C(C)(C)CCC1 | inconclusive: 70.8 µM [cytotoxic, single point] | 
CCN(CC)c1ccc(N)cc1 | inconclusive: 39.8 µM [cytotoxic, partial curve, poor fit] | 
N=C1C=CC(=C(c2ccc(N)cc2)c2ccc(N)cc2)C=C1 | inconclusive: 31.6 µM [cytotoxic, partial curve] | 
Cc1cc(-c2ccc(N=Nc3cc(S(=O)(=O)O)c4ccccc4c3N)c(C)c2)ccc1N=Nc1cc(S(=O)(=O)O)c2ccccc2c1N |  | inactive: -27.3%
Cc1cc(O)c(C(C)(C)C)cc1Sc1cc(C(C)(C)C)c(O)cc1C | inconclusive: 70.8 µM [cytotoxic, single point] | 
Cc1ccc(S(=O)(=O)Oc2ccc(N=Nc3ccc(-c4ccc(N=Nc5c(O)ccc6cc(S(=O)(=O)O)cc(S(=O)(=O)O)c56)c(C)c4)cc3C)cc2)cc1 | inconclusive: 35.5 µM [cytotoxic, partial curve] | 
CCC(C)Nc1ccc(NC(C)CC)cc1 (stereo not drawn) | active: 22.4 µM | 
O=C1c2ccccc2C(=O)C1c1ccc2ccccc2n1 | inconclusive: 44.7 µM [cytotoxic, partial curve] and inconclusive: 35.5 µM [cytotoxic, partial curve] | 
C[C@@H]1CC2(OC(O)[C@]3(C)O[C@H]23)O[C@H]2C[C@@]3(C)[C@@H]4CC[C@H]5C(C)(C)C(O[C@@H]6OC[C@@H](O)[C@H](O)[C@H]6O)CC[C@@]56C[C@@]46CC[C@]3(C)[C@@H]12 (stereo partly drawn) | active: 70.8 µM | 
NC1=NC(S)C2N=CN=C2N1 (stereo not drawn) | active: 5.01 µM | 
Cc1c(C(=O)O)c(O)cc2c1C(=O)c1c(O)c([C@H]3O[C@H](CO)[C@@H](O)[C@H](O)[C@H]3O)c(O)c(O)c1C2=O | inconclusive: 35.5 µM [cytotoxic, partial curve] | 
Cc1cc(Nc2ccc(O)cc2)ccc1N | inconclusive: 31.6 µM [cytotoxic, partial curve, poor fit] | 
